The full ranking holds about 33,000 sequences; the median of “E-score (-0.5 to 0.5)” is about -0.032, and the highest 2% start at about 0.36. The list shows a part of the results.
Molecular target: T1, Sko1 (UniProt Q02100)
T1 sequence: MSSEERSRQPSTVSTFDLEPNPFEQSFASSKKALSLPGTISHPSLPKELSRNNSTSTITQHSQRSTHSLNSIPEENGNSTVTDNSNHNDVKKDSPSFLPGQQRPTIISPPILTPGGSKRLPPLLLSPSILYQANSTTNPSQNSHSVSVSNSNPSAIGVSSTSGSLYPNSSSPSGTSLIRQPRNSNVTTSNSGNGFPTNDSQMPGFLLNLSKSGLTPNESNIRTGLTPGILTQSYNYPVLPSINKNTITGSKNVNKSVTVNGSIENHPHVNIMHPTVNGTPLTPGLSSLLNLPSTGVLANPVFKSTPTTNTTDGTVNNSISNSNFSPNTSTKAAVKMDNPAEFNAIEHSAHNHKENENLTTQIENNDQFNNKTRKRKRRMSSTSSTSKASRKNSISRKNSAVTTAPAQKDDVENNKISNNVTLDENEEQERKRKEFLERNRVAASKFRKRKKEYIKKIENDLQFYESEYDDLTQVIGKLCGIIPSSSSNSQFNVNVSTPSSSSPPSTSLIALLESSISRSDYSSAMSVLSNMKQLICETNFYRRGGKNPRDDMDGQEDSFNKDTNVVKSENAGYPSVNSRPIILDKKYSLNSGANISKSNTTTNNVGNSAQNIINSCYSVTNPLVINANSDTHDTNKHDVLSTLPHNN
Experiment: PBM E-score (8-mer binding enrichment) (E-score (-0.5 to 0.5)); higher = stronger / more preferred TF binding; most listed sequences are background and not binding sites
Conditions: protein concentration: 200 nM; construct: GST-full length
Method in brief: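 For each ungapped eight-base word taken together with its reverse complement, the Universal PBM Analysis Suite assigned an E-score. Binding data came from GST-tagged yeast transcription factors, applied at about 100-200 nM, on universal all-10-mer Agilent arrays made double-stranded by primer extension. Fluorescent anti-GST marked bound protein, and scans were normalised with masliner.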

Sequence	PBM E-score
ACTACGAG	0.162
CCGCTGAA	-0.0549
CCTGCTCA	-0.126
AATCGCAT	-0.00604
CCAACACA	0.132
TATTTGAA	0.0785
ATTGAAGC	-0.0571
AAGGTCTA	-0.216
ACTCATAC	0.134
CTTAGACA	-0.0184
CTAGTAGC	-0.0469
CCAGCGGC	-0.149
CCTTAGCG	-0.185
GCCCAGAA	-0.194
GCGCGCAC	0.127
CGGTGACG	0.449
CTCATCTC	0.0458
ATAACTAT	0.129
TACTAATA	0.251
GGCATGAC	0.184
AATCCGGA	0.0142
AATGCGTG	0.214
CGCCTCAA	-0.207
CACTTTTA	0.0638
CGTGTGTA	0.294

Sequence	PBM E-score
AACGCGAA	0.0822
GTCGAGTA	-0.112
GTTAGACA	0.136
AGTGAGTA	0.241
ACGCCGCC	-0.104
GGCTCTTA	-0.236
CATATGCG	0.0797
AACCTCAA	0.0294
GTCCGGTA	-0.135
ATTTACCG	0.0597
CGTATTTC	0.367
ATGGATCC	-0.133
GATTCGAC	-0.0624
ATGGGGTA	-0.11
TCGGAAGA	0.0306
CGAGGACG	-0.136
GTACCAAA	0.191
GGGTTGTA	-0.19
TGCGCGAA	0.169
TCCATCGA	0.0508
GGTAGAGA	-0.0375
AAATCGCG	0.0444
TCTACTAA	0.0947
CAATACCA	0.155
ACGGAGCA	-0.116

Sequence	PBM E-score
ACTTTACT	0.0486
CAACTGGC	-0.0932
CCTCCACC	-0.283
ACGATCAA	0.148
GAGATCGA	0.0574
GCTGACCC	-0.164
GCGGCGAA	-0.21
GGGCTTAA	-0.0276
TAGTAGAA	-0.0897
ATTGTAGA	0.12
ATACAGTG	0.106
ACTTGGTA	0.0545
CTGGGGAC	-0.303
GGGGTACC	-0.331
AGTTATTC	0.0588
AAGCCTTA	-0.162
AAAGACTG	-0.0799
GTCGTGCA	0.0146
AGGGTAGG	-0.18
AGTGGTTA	-0.0118
CCATACGC	0.177
AAGATCAA	0.0987
GACACTAA	-0.122
GATCTCAC	-0.0255
ATCTATGC	0.0234

Sequence	PBM E-score
TCTCGTCA	0.365
CCGACTAA	-0.131
GTTGCAAA	0.167
AATTAATC	0.199
AATAGCCA	0.204
AGGGTCTC	-0.27
CTGCATGC	0.0302
CTCCGCGC	-0.267
AGTGCCTC	-0.251
CGCGATAG	0.0737
AACAGCCC	-0.0423
ATCGTACG	0.282
AAACGCAC	0.171
GAGAACTC	-0.157
CCCAGGTA	-0.256
CCCCTCGA	-0.143
CAATGGGC	-0.181
GCTTATAC	-0.00941
AGAGAGTA	-0.0216
TCTGGAAA	0.149
GAGGCAAC	-0.144
GTTGGTAA	0.218
ACGTCCAA	0.288
AAGGGATG	-0.0159
TCCACCGA	-0.163

Sequence	PBM E-score
CGCTGCTA	-0.315
CGTGGAGA	0.11
ATGAGCGG	-0.135
ACGATTCG	0.059
GGCTTAAC	0.00826
TACTGCTA	-0.159
AGGGCCCT	-0.323
ATCTGCTC	-0.145
AAACACAT	0.123
AAATGACT	0.0649
GCAGGTTA	-0.156
ACTGCGGG	-0.206
ATCAGACG	0.0845
ATCCTCGG	-0.262
AGTCGTAC	0.101
TGGAGCAA	-0.0445
AGAATAGC	0.073
CCCAATAA	-0.0416
GCGTTGAC	0.184
ACGAGGGG	-0.265
AAAGTCAT	0.161
AGCCATTG	-0.03
CACGAGGG	-0.153
AGGACTAA	-0.134
AGATCCAC	-0.0646

Sequence	PBM E-score
AATGTGAC	0.2
GAGCGGAA	-0.0681
ACAGGTAG	-0.135
AGCAAGGA	-0.207
CGTGTGCA	0.181
AAACGCGC	0.0607
CACCCGTC	-0.0108
CAAGTGGG	-0.0643
AAGTGTAA	-0.2
ACTCACTG	-0.0231
CAACGGCC	-0.335
AACAACAA	0.146
CAATGCGA	0.126
CGCCCAAC	-0.115
ACCGCTGG	-0.176
AGGGACAG	-0.405
AGAGTAAT	0.13
TCATTGCA	0.244
GAACTCGC	0.0362
TCTCAACA	0.136
CCCGCGCC	-0.318
AGAACGTA	0.366
AATTAGCG	0.047
ACTTCCAG	-0.179
AGTAGCCG	-0.131

Sequence	PBM E-score
AGGTCCGA	-0.117
CTAGCTCC	-0.101
GAAGAGGA	-0.331
ACTCTTCT	-0.177
AATGTCTC	-0.0826
ATTCTAAG	0.16
CCCTCCCC	-0.12
AACAATGA	0.2
CCACCCCG	-0.129
CCTCAAAC	-0.145
AGACGACA	0.102
ATATCTGA	0.127
ACCATAAG	-0.0222
GAGATTGA	0.0649
CATTCCCA	-0.0105
ATGCCGCA	0.0038
ACCTGGAA	0.126
TTCACAAA	0.0412
CAGGGATA	-0.109
CAGACGTA	0.387
GACCAAGA	-0.00138
GCTCATCC	-0.123
CCCAGCTA	-0.155
AAACCGCC	-0.159
ACGCCCCC	-0.312

Sequence	PBM E-score
CGCACGTA	0.408
TTACCTAA	0.281
GGGCGTAC	-0.0799
GAATATTA	0.146
CCAATGCG	-0.0652
ACCATTTA	0.154
CTGCGGTA	-0.142
GTTGAAGA	0.127
CCACAAGG	-0.239
GCGGATCC	-0.369
AATTCATG	0.115
CCACTAGC	-0.119
CACCGATC	-0.0568
CAATGCCC	-0.216
AGGTGAAA	0.113
ACTCACAA	0.0209
GAACGCGC	-0.0118
AGAGTGGA	-0.0853
GCGACGAC	-0.08
GCCGTTCA	-0.213
GAGACCTA	-0.097
CCATAGAG	-0.36
ACCACAAT	-0.0211
ATGCCGAC	-0.0808
GCCGCCGC	-0.285

Sequence	PBM E-score
ATGGGGAC	-0.305
ACCTCTCA	-0.0435
CTACTAAC	0.0153
CAAAGACG	0.0557
AACGCCAC	0.0477
CATGATTA	0.3
CTCATCGA	-0.0117
AAAGCAGC	0.0132
ACTACCCG	-0.145
CAAGACAG	-0.0897
AGACGGTG	-0.175
CAGCAATG	-0.129
CTACCTTC	0.00192
ACGAGTTC	0.194
CCCAGCGA	-0.181
ACACAGAT	0.045
GGCCAACA	-0.29
CAATCGAC	0.0481
ACGAGAGT	0.191

— the supplement of paper PMC3334620
